We go through 40 compounds from the antibiotic and cytotoxicity screens of Wong et al. (2023).

Molecules are shown by their SMILES. This is one part of the list.

The subject of the assay is HepG2. The experiment in a line: cytotoxicity call (relative viability < 0.9). The following applies: 10 µM.
Regarding `C[C@@H]1CCCCO[C@@H](CN(C)Cc2ccc(C(F)(F)F)cc2)[C@H](C)CN([C@@H](C)CO)C(=O)c2cc(NC(=O)CCCN(C)C)ccc2O1`, the cytotoxicity call is “inactive”.

Turning to `C[C@@H]1CN([C@@H](C)CO)C(=O)c2cc(NC(=O)c3ccccc3)ccc2O[C@@H](C)CCCCO[C@H]1CN(C)Cc1ccc(C(F)(F)F)cc1`, the cytotoxicity call is “active”.

As to `CCc1cc(Nc2nccc(-c3c(-c4ccc(OC)c(C(=O)Nc5c(F)cccc5F)c4)nc4ccccn34)n2)c(OC)cc1N1CCC(N2CCN(S(C)(=O)=O)CC2)CC1`, the cytotoxicity call was “inactive”.

As to `N=C(N)NCCN1CCCCCCC1.O=S(=O)(O)O`, the cytotoxicity call was “inactive”.

For `C[C@H]1CN([C@@H](C)CO)C(=O)c2cc(NC(=O)c3ccncc3)ccc2O[C@H]1CN(C)Cc1ccc(C(=O)O)cc1`, the cytotoxicity call was “inactive”.

On to `C[C@@H]1CCCCO[C@H](CN(C)S(=O)(=O)c2ccccc2)[C@@H](C)CN([C@H](C)CO)C(=O)c2cc(NC(=O)Nc3ccc4c(c3)OCO4)ccc2O1`, for which the cytotoxicity call is “inactive”.

`C[C@H](CO)N1C[C@H](C)[C@H](CN(C)S(=O)(=O)c2ccc(Cl)cc2)Oc2ccc(NC(=O)Nc3cccc4ccccc34)cc2CC1=O`: the cytotoxicity call is “active”.

On to `COc1ccc(S(=O)(=O)Nc2ccc3c(c2)C(=O)N([C@H](C)CO)C[C@@H](C)[C@H](CN(C)S(=O)(=O)c2cn(C)cn2)OCCCC[C@@H](C)O3)cc1`, for which the cytotoxicity call is “inactive”.

Turning to `CN(C)CC#Cc1ccc([C@@H]2[C@@H](CO)N3C(=O)CN(C(=O)CN(C)C)C[C@@H]23)cc1`, the cytotoxicity call is “inactive”.

Turning to `C[C@H]1CCCCO[C@H](CN(C)C(=O)Nc2ccc3c(c2)OCO3)[C@@H](C)CN([C@@H](C)CO)C(=O)c2cc(NS(=O)(=O)c3cccs3)ccc2O1`, the cytotoxicity call is “inactive”.

As to `Cc1cc(C(=O)Nc2cccc3c2O[C@H](CN(C)Cc2ccccc2)[C@H](C)CN([C@@H](C)CO)C3=O)n(C)n1`, the cytotoxicity call was “inactive”.

With `COC(=O)[C@H]1[C@H](C(=O)O)[C@@]2(C(=O)Nc3ccc(C#Cc4ccc(OC)cc4)cc32)[C@@H](c2ccccc2)N1C`, the cytotoxicity call was “inactive”.

Consider `CCOC(=O)[C@H]1[C@@H]2[C@@H](Cc3ccccc3N)[C@@H](C(=O)OCC)N(c3ccc(OC)cc3)C(=O)[C@@]23C=C[C@@H]1O3`, for which the cytotoxicity call was “inactive”.

For the compound `COc1cccc(S(=O)(=O)Nc2ccc3c(c2)[C@H]2C[C@@H](CC(=O)N4CCCCC4)O[C@H](CO)[C@H]2O3)c1`, the cytotoxicity call is “inactive”.

As to `Cc1noc(C)c1S(=O)(=O)N(C)C[C@@H]1OCCCC[C@@H](C)Oc2ccc(N(C)C)cc2C(=O)N([C@H](C)CO)C[C@H]1C`, the cytotoxicity call was “inactive”.

With `C[C@@H]1CCCCO[C@H](CN(C)C(=O)C2CCCCC2)[C@@H](C)CN([C@@H](C)CO)C(=O)c2cc(NC(=O)c3ccccc3)ccc2O1`, the cytotoxicity call was “inactive”.

On to `O=c1/c(=C/c2cccc(Cl)c2)c2cccc3cccc1c32`, for which the cytotoxicity call was “inactive”.

On to `C[C@@H]1CCCCO[C@@H](CN(C)C(=O)Nc2cccc3ccccc23)[C@@H](C)CN([C@@H](C)CO)C(=O)c2cc(NC(=O)C3CCCCC3)ccc2O1`, for which the cytotoxicity call is “inactive”.

For the compound `C[C@H](CO)N1C[C@H](C)[C@H](CN(C)C(=O)C2CCOCC2)Oc2ncc(C#CCc3ccccc3)cc2C1=O`, the cytotoxicity call is “inactive”.

With `C[C@@H]1CN([C@@H](C)CO)C(=O)Cc2cc(NC(=O)Nc3ccc(F)cc3)ccc2O[C@@H]1CN(C)Cc1ccc(C(=O)Nc2ccccc2N)cc1`, the cytotoxicity call was “active”.

As to `Cc1ccc(S(=O)(=O)Nc2ccc3c(c2)C(=O)N([C@@H](C)CO)C[C@H](C)[C@H](CN(C)C(=O)Nc2ccc(C(F)(F)F)cc2)O3)cc1`, the cytotoxicity call was “inactive”.

For `OC[C@@H](O)[C@@H](O)CO`, the cytotoxicity call was “inactive”.

As for `COc1ccc([C@H]([C@H](Cc2ccccc2)OC(C)=O)N(C/C=C/[C@@H](OC(C)=O)c2ccccc2)[C@@H](Cc2ccccc2)C(OC)OC)cc1`, the cytotoxicity call is “active”.

As for `C[C@H](CO)N1C[C@H](C)[C@H](CN(C)S(=O)(=O)c2cn(C)cn2)Oc2c(NC(=O)NC3CCCCC3)cccc2C1=O`, the cytotoxicity call was “inactive”.

`C[C@H](CO)N1C[C@H](C)[C@@H](CN(C)C(=O)Nc2ccc(C(C)(C)C)cc2)OCc2cn(nn2)CCCC1=O`: the cytotoxicity call is “inactive”.

`CC(C)N(CCOc1c(Br)cc(/C=C/C(=O)NCCCOc2c(Br)cc(CCN(C)C)cc2Br)cc1Br)C(C)C`: the cytotoxicity call is “active”.

As for `O=C(NO)c1cn(CC(=O)N2CCC3(CC2)C(=O)NCN3c2ccccc2)nn1`, the cytotoxicity call is “inactive”.

As to `CC(=O)O[C@@H](C)C[N+](C)(C)C`, the cytotoxicity call is “inactive”.

For `CC(=O)N1CCn2nncc2C[C@@]1(C)C1CC1`, the cytotoxicity call was “inactive”.

Take `Cc1cccc(S(=O)(=O)N2C[C@@H](O)COC[C@H]3O[C@@H](CC(=O)NCCCN4CCOCC4)CC[C@@H]32)c1`: the cytotoxicity call was “inactive”.

With `Cc1noc(C)c1S(=O)(=O)Nc1ccc2c(c1)C(=O)N([C@H](C)CO)C[C@H](C)[C@H](CN(C)Cc1ccncc1)O2`, the cytotoxicity call was “inactive”.

As for `CN1CCN(C(=O)C[C@@H]2CC[C@H]3[C@@H](COC[C@@H](O)CN3C(=O)C3CCCC3)O2)CC1`, the cytotoxicity call is “inactive”.

On to `O=C(C[C@@H]1CC[C@@H]2[C@H](COC[C@@H](O)CN2C(=O)c2ccccn2)O1)NC1CCC1`, for which the cytotoxicity call is “inactive”.

`Cc1noc(C)c1S(=O)(=O)N(C)C[C@@H]1Oc2ccc(NC(=O)CCC(F)(F)F)cc2CC(=O)N([C@H](C)CO)C[C@@H]1C`: the cytotoxicity call is “inactive”.

Take `C[C@@H]1CCCCO[C@H](CN(C)S(=O)(=O)c2cccs2)[C@H](C)CN([C@@H](C)CO)C(=O)c2cc(NC(=O)NC3CCCCC3)ccc2O1`: the cytotoxicity call was “inactive”.

Regarding `C[C@H](NC(=O)N(C)C[C@H]1OCc2ccccc2-c2ccccc2C(=O)N([C@@H](C)CO)C[C@H]1C)c1ccccc1`, the cytotoxicity call is “inactive”.

As for `C[C@@H]1CCCCO[C@@H](CN(C)S(=O)(=O)c2ccc(F)cc2)[C@@H](C)CN([C@@H](C)CO)C(=O)c2cc(NC(=O)Cc3ccccc3)ccc2O1`, the cytotoxicity call was “active”.

On to `C[C@@H]1CCCCO[C@@H](CN(C)C(=O)NC2CCCCC2)[C@@H](C)CN([C@H](C)CO)C(=O)c2cc(NC(=O)CCC(F)(F)F)ccc2O1`, for which the cytotoxicity call was “inactive”.

With `COc1ccc(S(=O)(=O)Nc2cccc3c2O[C@@H](CN(C)S(=O)(=O)c2cn(C)cn2)[C@@H](C)CN([C@H](C)CO)C3=O)cc1`, the cytotoxicity call is “inactive”.

For the compound `COc1ccc(S(=O)(=O)N(C)C[C@H]2Oc3ccc(NC(=O)CCC(F)(F)F)cc3CC(=O)N([C@@H](C)CO)C[C@@H]2C)cc1`, the cytotoxicity call was “inactive”.
